# Reference: the supplement of paper PMC12217912
# The list shows a part of the results. The full chains were built here from the parent and the listed change. Values near 0.05 are background.
# B1: TEV protease; numbered along this chain (parent)
# chain: MGESLFKGPRDYNPISSSICHLTNESDGHTTSLYGIGFGPFIITNKHLFRRNNGTLVVQSLHGVFKVKDTTTLQQHLVDGRDMIIIRMPKDFPPFPQKLKFREPQREERICLVTTNFQTKSMSSMVSDTSCTFPSGDGIFWKHWIQTKDGQCGSPLVSTRDGFIVGIHSASNFTNTNNYFTSVPKNFMELLTNQEAQQWVSGWRLNADSVLWGGHKVFMVKPEEPFQPVKEATQL
# Variants of: B1
# Test: raw area under fraction-flipped curve 0-4 h after induction (AUC4h, not background-subtracted), DNA-recorder readout of cleavage of the substrate (dimensionless); higher = more cleavage of the substrate by the protease variant
# Details: temperature: 34 °C; time window: 0-4 h after rhamnose induction
# Experimental: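 In vivo DNA recorder in E. coli TOP10(DE3) ΔrhaA at 34 °C. Each TEVp single-site mutant (parent TEVp 0) is paired with a single-site variant of the 7-mer TEVs (canonical ENLYFQ|S). The substrate sits between flexible linkers in a Bxb1-sfGFP-TEVs-SsrA fusion, so cleavage stabilises Bxb1 and speeds flipping of a recombination array, read by NGS. The value is the raw area under the fraction-flipped curve over 0-4 h after rhamnose induction (AUC4h), with ≥20 reads per time point. It is not background-subtracted; inactive controls average about 0.047.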
# 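Further: Bxb1 expression induced with 0.2% (w/v) L-rhamnose at OD600 near 0.5, cultures sampled hourly, flipped fraction per protease–substrate barcode pair counted by paired-end Illumina sequencing.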
Variant,area with substrate ENAYFQS,area with substrate ENCYFQS,area with substrate ENDYFQS,area with substrate ENEYFQS,area with substrate ENFYFQS,area with substrate ENHYFQS,area with substrate ENIYFQS,area with substrate ENKYFQS,area with substrate ENNYFQS,area with substrate ENPYFQS,area with substrate ENQYFQS,area with substrate ENRYFQS,area with substrate ENSYFQS,area with substrate ENTYFQS,area with substrate ENVYFQS,area with substrate ENMYFQS,area with substrate ENWYFQS,area with substrate ENGYFQS,area with substrate ENYYFQS
MGESLFKGPRDYNPISSSICHLTNECDGHTTSLYGIGFGPFIITNKHLFRRNNGTLVVQSLHGVFKVKDTTTLQQHLVDGRDMIIIRMPKDFPPFPQKLKFREPQREERICLVTTNFQTKSMSSMVSDTSCTFPSGDGIFWKHWIQTKDGQCGSPLVSTRDGFIVGIHSASNFTNTNNYFTSVPKNFMELLTNQEAQQWVSGWRLNADSVLWGGHKVFMVKPEEPFQPVKEATQL [S26C],0.0532,0.0677,0.059,0.0458,0.0568,0.0483,0.0874,0.0585,0.0734,0.0607,0.0584,0.0553,0.0642,0.0634,0.0838,–,–,–,–
MGESLFKGPRDYNPISSSICHLTNEFDGHTTSLYGIGFGPFIITNKHLFRRNNGTLVVQSLHGVFKVKDTTTLQQHLVDGRDMIIIRMPKDFPPFPQKLKFREPQREERICLVTTNFQTKSMSSMVSDTSCTFPSGDGIFWKHWIQTKDGQCGSPLVSTRDGFIVGIHSASNFTNTNNYFTSVPKNFMELLTNQEAQQWVSGWRLNADSVLWGGHKVFMVKPEEPFQPVKEATQL [S26F],0.0545,0.0579,0.067,0.0515,0.0528,–,0.0763,0.0659,0.0594,0.0404,0.0554,0.0516,0.0638,0.0608,0.0668,0.0479,0.058,–,–
MGESLFKGPRDYNPISSSICHLTNESDGATTSLYGIGFGPFIITNKHLFRRNNGTLVVQSLHGVFKVKDTTTLQQHLVDGRDMIIIRMPKDFPPFPQKLKFREPQREERICLVTTNFQTKSMSSMVSDTSCTFPSGDGIFWKHWIQTKDGQCGSPLVSTRDGFIVGIHSASNFTNTNNYFTSVPKNFMELLTNQEAQQWVSGWRLNADSVLWGGHKVFMVKPEEPFQPVKEATQL [H29A],0.0496,0.0619,0.0675,0.0596,0.059,0.0631,0.118,0.0745,0.0769,0.0557,0.0642,0.0501,0.0574,–,0.0794,–,0.0584,0.0568,0.0625
MGESLFKGPRDYNPISSSICHLTNESDGRTTSLYGIGFGPFIITNKHLFRRNNGTLVVQSLHGVFKVKDTTTLQQHLVDGRDMIIIRMPKDFPPFPQKLKFREPQREERICLVTTNFQTKSMSSMVSDTSCTFPSGDGIFWKHWIQTKDGQCGSPLVSTRDGFIVGIHSASNFTNTNNYFTSVPKNFMELLTNQEAQQWVSGWRLNADSVLWGGHKVFMVKPEEPFQPVKEATQL [H29R],0.0366,0.043,0.067,0.0465,–,0.0596,–,–,–,–,0.0497,–,0.0612,0.0543,0.073,0.0485,0.0466,0.0707,–
MGESLFKGPRDYNPISSSICHLTNESDGETTSLYGIGFGPFIITNKHLFRRNNGTLVVQSLHGVFKVKDTTTLQQHLVDGRDMIIIRMPKDFPPFPQKLKFREPQREERICLVTTNFQTKSMSSMVSDTSCTFPSGDGIFWKHWIQTKDGQCGSPLVSTRDGFIVGIHSASNFTNTNNYFTSVPKNFMELLTNQEAQQWVSGWRLNADSVLWGGHKVFMVKPEEPFQPVKEATQL [H29E],0.0705,0.0666,0.0569,0.0564,–,0.0531,0.103,–,0.0637,–,0.049,–,0.0536,0.0671,0.0817,0.0794,–,0.0566,0.0626
MGESLFKGPRDYNPISSSICHLTNESDGDTTSLYGIGFGPFIITNKHLFRRNNGTLVVQSLHGVFKVKDTTTLQQHLVDGRDMIIIRMPKDFPPFPQKLKFREPQREERICLVTTNFQTKSMSSMVSDTSCTFPSGDGIFWKHWIQTKDGQCGSPLVSTRDGFIVGIHSASNFTNTNNYFTSVPKNFMELLTNQEAQQWVSGWRLNADSVLWGGHKVFMVKPEEPFQPVKEATQL [H29D],0.0565,0.059,0.07,0.0546,–,0.0574,0.116,0.0813,0.0603,0.0382,0.0611,0.0338,0.0776,0.0569,0.0729,0.11,–,0.0883,0.0359
MGESLFKGPRDYNPISSSICHLTNESAGHTTSLYGIGFGPFIITNKHLFRRNNGTLVVQSLHGVFKVKDTTTLQQHLVDGRDMIIIRMPKDFPPFPQKLKFREPQREERICLVTTNFQTKSMSSMVSDTSCTFPSGDGIFWKHWIQTKDGQCGSPLVSTRDGFIVGIHSASNFTNTNNYFTSVPKNFMELLTNQEAQQWVSGWRLNADSVLWGGHKVFMVKPEEPFQPVKEATQL [D27A],0.0524,–,0.052,0.0566,0.0588,0.0576,0.0882,0.0538,0.0563,0.0469,0.0418,0.0462,0.0472,0.073,–,0.0749,–,0.0476,0.0553
MGESLFKGPRDYNPISSSICHLTNESKGHTTSLYGIGFGPFIITNKHLFRRNNGTLVVQSLHGVFKVKDTTTLQQHLVDGRDMIIIRMPKDFPPFPQKLKFREPQREERICLVTTNFQTKSMSSMVSDTSCTFPSGDGIFWKHWIQTKDGQCGSPLVSTRDGFIVGIHSASNFTNTNNYFTSVPKNFMELLTNQEAQQWVSGWRLNADSVLWGGHKVFMVKPEEPFQPVKEATQL [D27K],0.0912,0.0661,0.0615,0.0514,–,–,–,–,0.0573,–,0.0605,0.0633,0.0614,–,0.0722,0.0675,–,0.0704,0.0597
MGESLFKGPRDYNPISSSICHLTNESQGHTTSLYGIGFGPFIITNKHLFRRNNGTLVVQSLHGVFKVKDTTTLQQHLVDGRDMIIIRMPKDFPPFPQKLKFREPQREERICLVTTNFQTKSMSSMVSDTSCTFPSGDGIFWKHWIQTKDGQCGSPLVSTRDGFIVGIHSASNFTNTNNYFTSVPKNFMELLTNQEAQQWVSGWRLNADSVLWGGHKVFMVKPEEPFQPVKEATQL [D27Q],0.0656,0.0666,0.0592,0.0982,0.0566,–,–,0.0647,–,0.057,0.0558,–,0.0584,0.0643,0.0793,0.0827,–,0.0578,0.052
